# Counter-ions that a name gives are not always drawn. Whole data set: some 2,800 compounds, median “cell viability relative to vehicle” near 0.98, cut for the lowest 2% near 0.45. The list shows a part of the results.
# Tested on: NCI-H2228 alectinib-DTP
# Assay: cell viability relative to vehicle (fraction of vehicle); NCI-H2228 is an ALK-positive lung cancer line and DTP means drug-tolerant persister; higher = less growth inhibition
# Settings: 100 nM; treatment time 6 days
# How it was run: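 Each value is viability relative to vehicle-treated cells, measured as ATP with the CellTiter-Glo 3D Cell Viability Assay. Parental NCI-H2228 cells and drug-tolerant persisters (1000 nM targeted drug, 13 days) in 384-well plates received the 3114-agent TargetMol anti-cancer compound library at 100 nM, or DMSO, and were read 6 days later.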
row,Structure (SMILES),cell viability
1,O=C(O)CCCC[C@@H]1CCSS1 (racemic) [Thioctic acid],1.08
2,NC(N)=Nc1nc(CSCC/C(N)=N/S(N)(=O)=O)cs1 [Famotidine],1.01
3,Cc1cc(-c2ccccc2)nnc1NCCN1CCOCC1 [Minaprine dihydrochloride],1.01
4,Cc1cc(C=C2SC(=O)N(c3ccccc3)C2=O)c(C)n1-c1cccnc1,1.02
5,CSc1ccc2c(c1)N(CCC1CCCCN1C)c1ccccc1S2 (configuration not stated) [Thioridazine hydrochloride],1.15
6,CC1=C(/C=C/C(C)=C/C=C/C(C)=C\C(=O)O)C(C)(C)CCC1 [Isotretinoin],0.675
7,CC/C(=C(/CC)c1ccc(O)cc1)c1ccc(O)cc1 [Diethylstilbestrol],0.958
8,COc1cc(OC)c(/C=C/S(=O)(=O)Cc2ccc(OC)c(NCC(=O)O)c2)c(OC)c1,0.655
9,CC(C)(C)S(=O)(=O)c1ccc2nccc(Nc3n[nH]c4ccc(F)cc34)c2c1,0.958
10,COc1ccc(-c2ccc3c(N4CCOCC4)nc(N4C[C@@H](C)O[C@@H](C)C4)nc3n2)cc1CO,0.765
11,CC(=O)CC/C=C(\C)CC/C=C(\C)CC/C=C(\C)CCC=C(C)C [Teprenone],0.981
12,Cc1cc(C)cc(Oc2ccc(CNC(=O)[C@H](C)N)cc2C)c1,1.02
13,Cc1ccc([N+](=O)[O-])cc1S(=O)(=O)N(C)/N=C/c1cnc2ccc(Br)cn12,0.172
14,Cc1ccc([N+](=O)[O-])cc1S(=O)(=O)N(C)/N=C/c1cnc2ccc(Br)cn12 [PIK-75  hydrochloride],0.201
15,Cc1noc(C)c1-c1ccc(-c2cc(C(N)=O)c(NC(N)=O)s2)c(O[C@H]2CCNC2)c1,0.933
16,CCN(c1cc(C#CCN2CCOCC2)cc(C(=O)NCc2c(C)cc(C)[nH]c2=O)c1C)[C@H]1CC[C@H](N(C)CCOC)CC1,0.96
17,O=c1cc(-c2ccc(O)cc2)oc2c([C@@H]3O[C@H](CO)[C@@H](O)[C@H](O)[C@H]3O)c(O)cc(O)c12 [Vitexin],1.14
18,CCCCCCCc1ccc(CCc2cccc(O)c2C(=O)O)cc1,0.987
19,C/C=C(/C)C(=O)O[C@@H]1[C@H](OC(C)=O)c2c(ccc3ccc(=O)oc23)OC1(C)C [Praeruptorin A],0.976
20,CC(C)C[C@H](NC(=O)CNC(=O)c1cc(Cl)ccc1Cl)B1OC(=O)C(CC(=O)O)(CC(=O)O)O1,0.342
21,CC[C@@H](CO)NCCN[C@@H](CC)CO [Ethambutol dihydrochloride],0.951
22,CCN(CC)CCCCNc1ncc2cc(-c3cc(OC)cc(OC)c3)c(NC(=O)NC(C)(C)C)nc2n1,0.715
